# “And” between values parts separate entries of the source, which are not always exact repeats. Equal values may be shown once. In all, about 410,000 compounds went through this assay and about 530 (0.13%) were called active. The shares of active, inactive and inconclusive entries below differ from those in the screen. The call rests on the fitted dose curve; in most records, active means well fitted inhibition curve with a large enough effect; inconclusive means small, poorly fitted or top-dose-only effect, or another doubt; inactive means no such curve, though single readings can be large or run the other way. Potencies of inconclusive entries are doubtful fits and often do not repeat.
# Experiment: qHTS of GLP-1 Receptor Inverse Agonists: Cytotox Screen
# Settings: HEK293 cAMP-luciferase reporter cells, luminescence, 24 h; series mostly up to 38.3 µM
# Procedure, shortened: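 To flag toxic compounds, the library was rerun on cells for 24 hr at 37 deg C and 5% CO2. Viability-linked luminescence was captured 12 min after adding luciferase detection reagent.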
# Potency means the concentration at half of the fitted maximal effect.
row,SMILES,Potency
1,C=C1C(O)[C@@H]2O[C@]3(CC[C@H](/C=C/C(C)[C@@H]4CC(C)=CC5(O[C@H](C[C@@](C)(O)CO)CCC5O)O4)O3)CC[C@H]2O[C@@H]1C(O)CC(C)[C@H]1OC2(CCCCO2)CCC1C (some centres undefined),"inconclusive: 0.708 µM [inhibitor, partial curve, poor fit]"
2,O=C(NC(=S)Nc1cccnc1Cl)c1ccc(Cl)cc1,"inconclusive: 12.6 µM [inhibitor, partial curve, poor fit]"
3,CN1CCN(c2nc(-c3cccnc3)nc3scc(-c4ccccc4)c23)CC1,"inconclusive: 28.2 µM [inhibitor, single point]"
4,Cc1ccc(-n2nc3c(N4CCCC(C(=O)NCCc5ccccc5)C4)nnc(C)c3c2C)cc1 (centres undefined),inactive
5,Cc1ccc(-n2nnc3c(SCC(=O)NCc4ccco4)ncnc32)cc1,"inconclusive: 11.2 µM [inhibitor, partial curve, poor fit]"
6,CN(C)c1ccc(C(=O)c2ccc(N(C)C)c(N)c2)cc1N,"inconclusive: 11.2 µM [inhibitor, single point]"
7,CCOC(=O)N1CCN(C(=O)c2ccc3c(=O)n(-c4ccc(F)cc4)c(=S)[nH]c3c2)CC1,inactive
8,Cc1ccn2c(NC3CCCCC3)c(-c3cccc(-c4cccc(Cl)c4)c3)nc2c1,"inconclusive: 11.2 µM [inhibitor, single point]"
9,C(C#CCCCCCCCCC[n+]1ccccc1)#CCCCCCCCCC[n+]1ccccc1,"inconclusive: 14.1 µM [inhibitor, partial curve, poor fit] and inconclusive: 8.91 µM [inhibitor, partial curve, poor fit]"
10,CC1=NN(C(=O)c2ccc(Cn3cc(Br)c([N+](=O)[O-])n3)o2)C(O)(C(F)(F)F)C1 (centres undefined),"inconclusive: 7.94 µM [inhibitor, partial curve, poor fit]"
11,CC1(C)CC(=O)C2=C(C1)N(c1ccc(F)cc1)C(=O)CC2c1ccsc1 (centres undefined),"inconclusive: 11.2 µM [inhibitor, single point]"
12,Nc1ccc(Cc2ccc(N)c(O)c2)cc1O,"inconclusive: 7.94 µM [inhibitor, partial curve, poor fit]"
13,CC12CC(c3ccccc3O1)N(C(=O)c1ccco1)C(=S)N2c1ccccc1 (centres undefined),"inconclusive: 8.91 µM [inhibitor, partial curve, poor fit]"
14,Cn1c(/C=C/c2ccc(Cl)cc2)c([N+](=O)[O-])c(=O)n(C)c1=O,"inconclusive: 31.6 µM [inhibitor, partial curve, poor fit]"
15,CNc1nc(-c2c(C)[nH]c3ccc(OC)cc23)cs1,"inconclusive: 1.26 µM [inhibitor, partial curve, poor fit]"
16,S=C(NCc1ccc(Cl)cc1)NCc1ccco1,"inconclusive: 8.91 µM [inhibitor, partial curve, poor fit]"
17,Nc1c(-c2ccc(F)c(F)c2)nc2ncccn12,inactive
18,Cc1cc(C(=O)NCC(c2cccs2)N2CCOCC2)ccc1[N+](=O)[O-] (centres undefined),"inconclusive: 20 µM [inhibitor, single point]"
19,CNc1ccc(Br)cc(C(=O)/C=C/c2cc(OC)ccc2OC)c1=O,"inconclusive: 15.8 µM [inhibitor, partial curve, poor fit]"
20,S=C(NCc1ccccc1)NCc1ccc(CNC(=S)NCc2ccccc2)cc1,inactive

row,SMILES,Potency
1,COc1cc(OC)c(N(C)C(=O)c2nn(C)c3c2CSc2ccccc2-3)cc1Cl,inactive
2,CCN(CC)C(=O)/C(=C/c1cn(S(=O)(=O)N(C)C)c2ccccc12)NC(=O)c1ccc(OC)cc1,"inconclusive: 12.6 µM [inhibitor, single point]"
3,CCOC(CN=c1nc(N(C)C)ss1)OCC,"inconclusive: 0.355 µM [inhibitor, full curve, poor fit]"
4,Cc1ccc(S(=O)(=O)Nc2ccc3cc([N+](=O)[O-])ccc3c2[N+](=O)[O-])cc1,"inconclusive: 11.2 µM [inhibitor, partial curve, poor fit]"
5,NC(N)=N/N=C/c1ccc(OS(=O)(=O)c2ccccc2)cc1,"inconclusive: 28.2 µM [inhibitor, single point]"
6,O=C(Nc1cccc(Cl)c1)Nc1ccccc1OCc1cc(=O)n2ccccc2n1,inactive
7,CCn1c(-c2sc(-c3ccccc3)nc2C)n[nH]c1=S,"inconclusive: 5.01 µM [inhibitor, single point]"
8,O=c1[nH]c(/C=C/c2cccc([N+](=O)[O-])c2)c([N+](=O)[O-])c(=O)[nH]1,inactive
9,O=C1C2CCCN2C(=O)N1CCCN1CCN(c2ccc([N+](=O)[O-])cc2)CC1 (centres undefined),"inconclusive: 7.94 µM [inhibitor, partial curve, poor fit]"
10,COc1ccc(Nc2cc(C)c3cc(NC(=O)c4cc(OC)cc(OC)c4)ccc3n2)cc1,"inconclusive: 15.8 µM [inhibitor, partial curve, poor fit]"
11,Cc1ccc(-n2nc3c(=O)n(C(C)C(=O)NCc4ccccc4Cl)nc(C)c3c2C)cc1 (centres undefined),"inconclusive: 7.94 µM [inhibitor, partial curve, poor fit]"
12,Cc1ccc(-n2cccn2)c(CN2CCC(CO)(CCc3ccccc3)CC2)c1,"inconclusive: 28.2 µM [inhibitor, single point]"
13,CCn1c(/C=C/N(C)c2ccccc2)[n+](CC)c2ccc(Cl)cc21,"inconclusive: 0.891 µM [inhibitor, full curve]"
14,CC(C)c1ccc(NC(=O)C2(C)Cc3ccccc3C(=O)O2)cc1 (centres undefined),inactive
15,Cc1cccc(C)c1OC(=O)c1ccccc1,"inconclusive: 2.51 µM [inhibitor, partial curve, poor fit]"
16,CCn1c(/C=C/c2ccccc2)nc2ccccc21,inactive
17,CCNC(=S)N/N=C1\CCCCc2ccccc21,active: 3.98 µM
18,Cc1ccccc1Nc1nc(Nc2ccccc2C)nc(SC2=NCCS2)n1,"inconclusive: 28.2 µM [inhibitor, single point]"
19,Cc1ccc(OCC(=O)Nc2nc(-c3ccccn3)cs2)c(C)c1,"inconclusive: 20 µM [inhibitor, single point]"

# From PubChem BioAssay AID624418 (National Center for Advancing Translational Sciences (NCATS), 2012)
